PubChem BioAssay AID1963576 (National Center for Advancing Translational Sciences (NCATS), 2024)
Among all 46,000 compounds or so, about 60 (0.1%) were called active. Roughly 3% stayed inconclusive and do not appear here. Calls follow the shape of the dose curve; as a rule, active = well fitted inhibition curve with a large enough effect; inconclusive = small, poorly fitted or top-dose-only effect; inactive = no such curve, though single readings can be large or run the other way. The list shows a part of the results.

Experiment: Primary qHTS assay for Inhibitors of ovarian cancer metastasis using an organotypic tumor microenvironment (TME) model. Also: nearly all actives have a fitted effect of over 65% in size.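 As to activity change, negative = inhibition: plate controls were DMSO wells for no effect and tomatine positive control wells for full effect.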
Conditions: SKOV3ip1-GFP adhesion/invasion on 3D omental model, fluorescence; series mostly up to 45.8 µM; activity change, negative = inhibition: at the top concentration
How it was run: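 Adhesion/invasion was scored as fixed GFP-labeled SKOV3ip1 cell counts (488/509 nm), normalized to DMSO and tomatine controls. Cancer cells in serum-free medium, with four compound doses (0.36-46 umol/L), sat 2 hr at RT then 16 hr at 37 C on a 48 hr fibroblast/mesothelial/ECM culture.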

Activity change, negative = inhibition, inactive:
CCCn1cc(S(=O)(=O)c2ccccc2)c(=O)c2cc(F)c(N3CCCC3)cc21 -2.54%
COc1ccc(-n2nc(C(=O)N3CCN(c4cccc(C)c4)C(C)C3)c3c4ccccc4n(C)c3c2=O)cc1 (centres undefined) -3.5%
CCCn1ccc2c(OCC(=O)Nc3ccc(F)cc3F)cccc2c1=O 5.98%
N#Cc1ccc(COC[C@H]2O[C@@H](n3c(NCc4ccc(Cl)c(Cl)c4)nc4c(N)ncnc43)[C@@H](O)[C@@H]2O)cc1 -19.8%
COc1ccc(NC(=O)c2nn(C)c3c2CSc2ccc(C)cc2-3)cc1OC -10.1%
COc1ccc(C2(C#N)CCC(C(=O)O)CC2)cc1OC1CCCC1 (centres undefined) 9.33%
COc1ccc(CNC(=O)CN2C(=O)COc3ccc(S(=O)(=O)N4CCCCCC4)cc32)cc1 9.7%
COc1ccc(-n2c(SCC(=O)NCc3ccccc3)nc3ccsc3c2=O)cc1 -3.79%
CCOC(=O)c1ccc(NC(=O)CC2Nc3cc(C)c(C)cc3NC2=O)cc1 (centres undefined) 12.7%
COCCOC(=O)Cn1nnc2sc(-c3ccccc3)cc2c1=O 5.57%
COCCCNC(=O)c1ccc(Cn2c(=O)c3ccccc3n(Cc3ccc(C)cc3)c2=O)cc1 -24.3%
Cc1[nH]c(C=C2C(=O)Nc3ccccc32)c(C)c1CCC(=O)O -24.1%
COc1cccc(NC(=O)c2ccc3c(=O)n4nc(Nc5ccccc5OC)sc4nc3c2)c1 -7.29%
CCOc1ccc(-n2c(=O)c3c4c(sc3n(CC(=O)NCCCOC)c2=O)CCCCC4)cc1 -6.77%
CCc1cccc(C)c1NS(=O)(=O)c1ccc2c(c1)NC(=O)C(C)C(=O)N2 (centres undefined) -3.5%
CC(=O)OC[C@@H]1O[C@@H](n2ccc(=O)[nH]c2=O)[C@H](OC(C)=O)[C@H]1OC(C)=O 4.32%
CC(=O)N1CCCc2cc(S(=O)(=O)N3CCCC(C(=O)N4CCN(c5ccccc5F)CC4)C3)ccc21 (centres undefined) 2.06%
CCOC(=O)c1cc2c(=O)n3ccccc3nc2n(Cc2ccco2)c1=NC(=O)c1ccc(OC)cc1 2.45%
CC(C)COc1ccc(C(=O)Nc2scc(-c3ccc(Br)cc3)c2C(=O)OC(C)C)cc1 16.4%
CSc1ccc(CNC(=O)c2ccc3c(c2)N(C)C(=O)C2CCCCN32)cc1 (centres undefined) -5.94%
CCCCNC(=O)c1cnn2c(C)c(Cc3c(C)cc(C)cc3C)c(C)nc12 -2.23%
Cc1ccccc1OCc1ccc(-c2nc(C#N)c(N3CCCCC3)o2)o1 -22.6%
Cc1cc(C)c(NC(=O)Cn2nnc(C(=O)NCc3cccs3)c2N)c(C)c1 -6.57%
Cc1ccc(CNC(=O)c2c(-c3ccc(F)cc3F)noc2C)o1 0.887%
O=C(NCc1cccc(Cl)c1)C1CCN(c2nn3cc(-c4ccc(F)cc4)nc3s2)CC1 0.123%
CCN(CC)c1ccc2cc(-c3nc(-c4ccccc4)no3)c(=O)oc2c1 14.1%
O=C(NCc1ccccc1)c1cccc(N2CCCS2(=O)=O)c1 22.4%
O=c1ccc2cc(S(=O)(=O)NCc3ccc(Cl)cc3)ccc2[nH]1 -9.65%
CCOc1ccc(-n2nc(CO)c(C(=O)NCC(c3ccccc3)c3ccccc3)n2)cc1 -4.23%
COc1ccc(C(=O)COC(=O)CCCC(=O)Nc2ccc(C(C)=O)cc2)cc1 9.2%
Cc1cc(C)c(NC(=O)COCc2cc(-c3cccs3)on2)c(C)c1 -2.29%
COC(=O)c1scc(-c2ccc(C)cc2)c1S(=O)(=O)Nc1ccc(NC(C)=O)cc1 -26.6%
COc1ccc(S(=O)(=O)N(CC(=O)NCCSc2ccccc2)c2ccc(Cl)cc2)cc1 -9.43%
O=C(CSc1nccn1Cc1ccc(F)cc1)NCc1ccccc1 0.511%
COC(=O)c1ccc(-n2nnc(-c3nsc(NC(=O)c4ccc(Cl)cc4)n3)c2C)cc1 5.65%
COc1ccccc1NC(=O)CCNS(=O)(=O)c1ccc2c(c1)CCN2C(=O)C1CC1 6.07%
CCN(CC)C(=O)c1sc2c(c1C)c(=O)n(Cc1ccccc1)c(=O)n2CC(=O)Nc1ccc(OC)cc1 5.48%
Cc1ccccc1CNC(=O)Cc1csc2ccccc12 -1.26%
CCCSc1ncc(Cl)c(C(=O)Nc2sc3c(c2C(N)=O)CCCC3)n1 -12%
CCOC(=O)c1c(C)oc2ccc(N(C(=O)c3ccncc3)S(=O)(=O)c3ccc(F)cc3)cc12 -3.64%
CCN(Cc1ccccc1)C(=O)CCS(=O)(=O)c1cc(Br)cc2c1N(C(=O)C1CC1)CC2 16.2%
CN(c1ccccc1)S(=O)(=O)c1nnc(NC(=O)c2cccs2)s1 -4.17%

outcome, inactive:
Cc1ccc(C(=O)N/C(=C\c2cn(S(=O)(=O)N(C)C)c3ccccc23)C(=O)NCCCn2ccnc2)cc1
COc1ccc(NC(=O)c2ccco2)cc1NC(=O)COc1ccccc1Cl
Cc1cccc(NC(=O)CSc2nc3c([nH]c4ccccc43)c(=O)n2-c2ccc(F)cc2)c1C
Cc1ccc(C2Nc3ccccc3-n3c(-c4ccccc4)c4c(=O)n(C)c(=O)n(C)c4c32)cc1 (centres undefined)
COC(=O)c1sccc1S(=O)(=O)N(CC(=O)Nc1cc(C)cc(C)c1)c1ccc(Cl)cc1
COc1ccc(CNC(=O)c2ccc(CNS(=O)(=O)c3ccc(OC)cc3)cc2)cc1
Cc1nn(S(=O)(=O)c2ccc(C(C)C)cc2)c(C)c1S(=O)(=O)N1CCCCC1
Cc1nc(SCC(=O)OC(C)(C)C)c2c3c(sc2n1)CCCC3
Cc1ccc2c(c1)-c1c(cnn1CC(=O)N1CCN(c3cccc(C(F)(F)F)c3)CC1)CO2
COc1cc(NC(=O)Cn2c(=O)n(-c3ccccc3)c(=O)c3c4c(sc32)CCCC4)cc(OC)c1
COc1ccc(CC(=O)NCC(c2ccc(N(C)C)cc2)N2CCOCC2)cc1OC (centres undefined)
COc1ccc(-c2cn3nc(N4CCCC(C(=O)Nc5cc(Cl)ccc5OC)C4)sc3n2)cc1 (centres undefined)
Cc1nc2cccnc2n1C1CCN(C(=O)Nc2ccccc2C(F)(F)F)CC1
COc1ccc(-n2ncc(C(=O)NCc3ccc4c(c3)OCO4)c2C2CCN(C(=O)OC(C)(C)C)CC2)cc1
CCc1cccc(N2C(=O)CSC23C(=O)N(Cc2ccccc2F)c2ccccc23)c1 (centres undefined)
Cc1cccc(OCC(=O)Nc2cccc(C(=O)OCc3cc(=O)n4c(C)csc4n3)c2)c1
O=c1c(NCCc2ccc(Cl)cc2)nccn1-c1ccccc1
